Source: the supplement of paper PMC4967469
A lower IC50 marks a more sensitive line; fits outside the tested doses are given as limits. AUC is the area under the same curve over the 256-fold range up to the top dose, as a fraction: 1 means no effect, lower means more sensitive. For some assays here: The top dose, if marked as inferred, was calculated from the reported fits. For some assays here: Drugs with an entry number were screened twice under separate entries, and the two screens often disagree.

How the values were obtained:
Assay in all cases: Viability of human cancer cell lines after 72 h of drug (GDSC screen)
KU-55933 = compound: O=c1cc(-c2cccc3c2Sc2ccccc2S3)oc(N2CCOCC2)c1 [KU-55933]; details: top dose 10 µM
Experimental: (§1)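 Human cancer cell lines in 384-well plates, medium with 10% serum, drug for 72 h over a 256-fold dose range (nine 2-fold or five 4-fold steps up to the top dose). Adherent lines were fixed and stained with the nucleic acid dye Syto60, suspension lines read with resazurin; signal relative to control wells, capped at 0 and 100%. One two-parameter sigmoid per drug and line, fitted in a mixed model over all curves with the slope shared within a line.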

CMK = compound: Cc1ccc(-c2c(C(=O)CCl)n(CCCO)c3ncnc(N)c23)cc1 [CMK]; details: top dose 4 µM; top dose inferred
Experimental: as §1

(5Z)-7-Oxozeaenol = compound: COc1cc(O)c2c(c1)/C=C/C[C@H](O)[C@H](O)C(=O)/C=C\C[C@H](C)OC2=O [(5Z)-7-Oxozeaenol]; details: top dose 10 µM; top dose inferred
Experimental: as §1

MPS-1-IN-1 = compound: COc1cc(N2CCC(O)CC2)ccc1Nc1cc(Nc2ccccc2S(=O)(=O)C(C)C)c2cc[nH]c2n1 [MPS-1-IN-1]; details: top dose 20 µM; top dose inferred
Experimental: as §1

Zibotentan = compound: COc1nc(C)cnc1NS(=O)(=O)c1cccnc1-c1ccc(-c2nnco2)cc1 [Zibotentan]; details: top dose 20 µM; top dose inferred
Experimental: as §1

GSK269962A = compound: CCn1c(-c2nonc2N)nc2cnc(Oc3cccc(NC(=O)c4ccc(OCCN5CCOCC5)cc4)c3)cc21 [GSK269962A]; details: top dose inferred
Experimental: as §1

ABT-869 = compound: Cc1ccc(F)c(NC(=O)Nc2ccc(-c3cccc4[nH]nc(N)c34)cc2)c1 [ABT-869]; details: top dose 1.024 µM; top dose inferred
Experimental: as §1

Cytarabine = compound: Nc1ccn([C@@H]2O[C@H](CO)[C@@H](O)[C@@H]2O)c(=O)n1 [Cytarabine]; details: top dose 2 µM
Experimental: as §1

CHIR-99021 = compound: Cc1cnc(-c2cnc(NCCNc3ccc(C#N)cn3)nc2-c2ccc(Cl)cc2Cl)[nH]1 [CHIR-99021]
Experimental: as §1

QL-X-138 = compound: C=CC(=O)Nc1cc(-n2c(=O)ccc3cnc4ccc(-c5cn[nH]c5)cc4c32)ccc1C [QL-X-138]; details: top dose 10.24 µM; top dose inferred
Experimental: as §1

ABT-888 = compound: C[C@]1(c2nc3c(C(N)=O)cccc3[nH]2)CCCN1 [ABT-888]; details: top dose 5 µM; top dose inferred
Experimental: as §1

CP466722 = compound: COc1cc2ncnc(-n3nc(-c4ccccn4)nc3N)c2cc1OC [CP466722]; details: top dose 16 µM; top dose inferred
Experimental: as §1

Thapsigargin = compound: C/C=C(/C)C(=O)O[C@H]1C(C)=C2[C@H]([C@@H]1OC(=O)CCCCCCC)[C@@](C)(OC(C)=O)C[C@H](OC(=O)CCC)[C@@]1(O)[C@H]2OC(=O)[C@@]1(C)O [Thapsigargin]; details: top dose 0.512 µM; top dose inferred
Experimental: as §1

[1] = top dose 2.5 µM, screen: GDSC drug entry 127
[2] = top dose 5 µM, screen: GDSC drug entry 1192
[3] = top dose 2.56 µM, screen: GDSC drug entry 154
[4] = top dose 10 µM, screen: GDSC drug entry 1241, top dose inferred

Cell Line	AUC (KU-55933)	IC50 (KU-55933) [nM]	AUC (CMK)	IC50 (CMK) [nM]	AUC ((5Z)-7-Oxozeaenol)	IC50 ((5Z)-7-Oxozeaenol) [nM]	AUC (MPS-1-IN-1)	IC50 (MPS-1-IN-1) [nM]	AUC (Zibotentan)	IC50 (Zibotentan) [nM]	AUC (GSK269962A; [1])	IC50 (GSK269962A; [1]) [nM]	AUC (GSK269962A; [2])	IC50 (GSK269962A; [2]) [nM]	AUC (ABT-869)	IC50 (ABT-869) [nM]	AUC (Cytarabine)	IC50 (Cytarabine) [nM]	AUC (CHIR-99021; [3])	IC50 (CHIR-99021; [3]) [nM]	AUC (CHIR-99021; [4])	IC50 (CHIR-99021; [4]) [nM]	AUC (QL-X-138)	IC50 (QL-X-138) [nM]	AUC (ABT-888)	IC50 (ABT-888) [nM]	AUC (CP466722)	IC50 (CP466722) [nM]	AUC (Thapsigargin)	IC50 (Thapsigargin) [nM]
D-247MG (glioma, adherent)	0.979	> 10000	0.93	> 4000	0.661	2080	0.925	> 20000	0.913	> 20000	0.662	523	0.887	> 5000	0.785	618	0.723	686	0.751	1130	0.874	> 10000	0.829	9850	0.966	> 5000	0.724	5580		
D-336MG (glioma, adherent)	0.977	> 10000	0.947	> 4000	0.649	1830	0.928	> 20000	0.975	> 20000	0.693	643	0.629	789	0.962	> 1020	0.743	774	0.741	974	0.935	> 10000	0.576	1100	0.981	> 5000	0.801	10500		
Daudi (Burkitt lymphoma, suspension)	0.971	> 10000	0.886	3420	0.607	1180	0.859	13300	0.988	> 20000	0.871	1850	0.857	3270	0.99	> 1020	0.985	> 2000	0.969	> 2560	0.968	> 10000	0.324	222			0.977	> 16000	0.172	3.9
GA-10 (Burkitt lymphoma, suspension)	0.932	> 10000	0.81	1710	0.755	2930					0.33	57.1	0.932	> 5000			0.917	> 2000	0.874	1850	0.916	> 10000			0.991	> 5000				
KMS-12-BM (myeloma, suspension)			0.888	3140			0.843	10700	0.987	> 20000	0.991	> 2500			0.991	> 1020	0.942	> 2000	0.991	> 2560			0.459	504	0.991	> 5000	0.613	1920	0.181	4.48
LB2241-RCC (kidney, adherent)			0.661	743	0.479	544	0.97	> 20000	0.984	> 20000	0.835	1930	0.734	1590	0.984	> 1020	0.394	61.5	0.976	> 2560	0.63	1500	0.984	> 10200	0.977	> 5000	0.984	> 16000	0.62	71.4
LS-123 (large intestine, adherent)			0.895	> 4000	0.634	1660	0.931	> 20000	0.978	> 20000	0.945	> 2500	0.908	> 5000	0.96	> 1020	0.979	> 2000	0.98	> 2560	0.975	> 10000	0.614	1460	0.973	> 5000	0.821	13600	0.34	9.88
LU-139 (small cell lung carcinoma, suspension)			0.919	> 4000	0.672	2180	0.961	> 20000	0.933	> 20000	0.948	> 2500	0.847	> 5000	0.947	> 1020	0.956	> 2000	0.944	> 2560	0.98	> 10000			0.899	> 5000	0.719	5050	0.594	62.4
NB17 (neuroblastoma, adherent)	0.984	> 10000	0.737	1330			0.79	10400	0.979	> 20000	0.794	1350			0.941	> 1020	0.905	> 2000	0.934	> 2560			0.39	304	0.982	> 5000	0.913	> 16000		
NCI-H716 (large intestine, suspension)			0.979	> 4000	0.763	4500	0.871	> 20000	0.976	> 20000	0.975	> 2500	0.77	2390	0.965	> 1020	0.982	> 2000	0.981	> 2560	0.979	> 10000	0.873	> 10200	0.809	3470	0.855	> 16000	0.89	> 512
NCI-H1581 (large cell lung carcinoma, semi-adherent)			0.905	> 4000	0.613	1240	0.956	> 20000	0.989	> 20000	0.94	> 2500	0.906	> 5000	0.989	> 1020	0.803	900	0.99	> 2560	0.988	> 10000	0.627	1390	0.989	> 5000	0.804	7270	0.403	17.7
NCI-H1666 (lung adenocarcinoma, semi-adherent)			0.963	> 4000	0.666	1890	0.97	> 20000	0.987	> 20000	0.979	> 2500	0.985	> 5000	0.983	> 1020	0.911	> 2000	0.986	> 2560	0.907	> 10000	0.793	5180	0.986	> 5000	0.921	> 16000	0.861	505
NCI-H1963 (small cell lung carcinoma, suspension)			0.807	1740			0.991	> 20000	0.986	> 20000	0.831	1310					0.965	> 2000	0.991	> 2560					0.991	> 5000			0.609	61.2
NTERA-2 cl.D1 (testis, adherent)			0.916	> 4000	0.536	782	0.852	15200	0.985	> 20000	0.947	> 2500	0.414	182	0.982	> 1020	0.622	270	0.985	> 2560	0.958	> 10000	0.776	4050	0.976	> 5000	0.823	9320	0.057	< 2
PL-21 (acute myeloid leukaemia, suspension)			0.885	> 4000	0.691	2360	0.743	7070	0.97	> 20000	0.763	1040	0.88	> 5000	0.979	> 1020	0.749	743	0.982	> 2560	0.98	> 10000	0.486	584	0.983	> 5000	0.629	2410	0.764	215
RL95-2 (endometrium, adherent)			0.849	2970	0.753	3320	0.803	9760	0.986	> 20000	0.94	> 2500	0.881	> 5000	0.986	> 1020	0.721	524	0.987	> 2560	0.986	> 10000	0.947	> 10200	0.987	> 5000	0.913	> 16000		
SK-N-DZ (neuroblastoma, adherent)			0.851	3000	0.409	352	0.864	17100	0.987	> 20000	0.913	> 2500	0.803	2440	0.983	> 1020	0.754	666	0.904	> 2560	0.872	9310	0.96	> 10200	0.987	> 5000	0.948	> 16000	0.584	54.2
WSU-NHL (lymphoid neoplasm, suspension)	0.883	8500	0.951	> 4000	0.565	919	0.85	12400	0.99	> 20000	0.901	> 2500	0.956	> 5000	0.989	> 1020			0.986	> 2560	0.973	> 10000	0.868	7480	0.99	> 5000	0.802	6770	0.304	9.73
no-10 (glioma, adherent)			0.792	2290	0.71	2830	0.964	> 20000	0.98	> 20000	0.637	410	0.794	2920	0.975	> 1020	0.961	> 2000	0.95	> 2560	0.963	> 10000	0.557	950	0.98	> 5000	0.894	> 16000	0.805	330
